Measurements published in the supplement of paper PMC11417369.
± gives the standard deviation of the averaged measurements. The list shows a part of the results.

Test system: PfAP2-I AP2 domain 3 (GST-tagged)
Assay: gcPBM binding intensity (ln(normalized median fluorescence intensity)); higher = stronger DNA binding
Summary of the method: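 Alexa488 anti-GST antibody, scanned at 488 nm, detected GST-tagged P. falciparum DNA-binding domains that had been expressed in E. coli and incubated for 1 h on an Agilent 4 × 180k array. The array carried primer-extended double-stranded 36-bp intergenic genomic probes and negative controls. Binding intensity is the highest Masliner-normalised natural-log median intensity across replicate spots of either orientation of each probe.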

| Sequence | gcPBM binding intensity (ln) |
| --- | --- |
| TATATATATATATATGTGCGCATATATTTTTTTGTA [GTGCAC_site9983] | 9.59 ± 0.25 |
| ACAAAATTTACAAAATGTACAAAATATACAAAATAT [XGTACX_site6465] | 7.68 ± 0.59 |
| TATTCTTATATATATACACACACAAAATATCTACAA [CACACA_site8144] | 7.91 ± 0.47 |
| TTGCATTGATCAAACATACACACATGGTTAATAAAA [CACACA_site2084] | 7.89 ± 0.52 |
| AATAATATACATATATATATTATATTGTAATTTTGT [TGCATGCA_negctrl_site1] | 7.38 ± 0.51 |
| ACTAGACAAAATATAATGCACACTATTATTTTTATT [CACACA_site2726] | 10.9 ± 0.65 |
| TTATATCAAGGGAATGCATGCATATCGTTTTGTATT [TGCATGCA_site327] | 7.68 ± 0.88 |
| CATGAGGTATAAAAGGTGCAAATTAATGAGAACATT | 11.1 ± 0.36 |
| TATTTCTCACTGTATGGTACAGATATAAATTTTTAT [XGTACX_site8776] | 7.83 ± 0.46 |
| TATAAAATAAAAAATAAATATCTATATATATATATA [TGCATGCA_negctrl_site351] | 9.21 ± 0.4 |
| TTGTGTTATCCTTTTTTAGATCAACTATTTTTATTC [CACACA_negctrl_site145] | 7.75 ± 0.61 |
| ATAAAGCACACCGACACACACATATTTATATTTATA [CACACA_site6620] | 9.82 ± 0.5 |
| ATTTATAAAATTAATGCACACATCAGCATTTATAAA [CACACA_site1025] | 11.3 ± 0.79 |
| TAAATACATAGATGTACACACATTACAGATGTACAT [CACACA_site4692] | 7.83 ± 0.38 |
| TTTATACATTTATATTGTACTAATTCGATTTTATAT [XGTACX_site5424] | 7.76 ± 0.42 |
| AAAGAAAAAGAAAAAGAAAAATTAGAATATAAAATA [CACACA_negctrl_site792] | 7.08 ± 0.75 |
| AATGATCATATATACACACACACAAAAAAAAAAAAA [CACACA_site4009] | 8.06 ± 0.69 |
| ATAAGAAATGTAACTTGTACATAAGGATATATATTT [XGTACX_site236] | 7.66 ± 0.47 |
| CATTTATATAAATACACACACACAAAAAAAAAAAAA [CACACA_site5459] | 8.03 ± 0.5 |

| Sequence | gcPBM binding intensity (ln) |
| --- | --- |
| TAATAATAAAAAAATAGTACATAAATAAAAATAATA [XGTACX_site4774] | 7.73 ± 0.38 |
| TTTTTTTTTTTAAGTTCACACATAAATTCGATTTAC [CACACA_site5057] | 7.92 ± 0.7 |
| ACCGTTTTTGTGTAATGTACAAAATTTCTGACAGTG [XGTACX_site4999] | 7.91 ± 0.7 |
| ATAATTTGTAAAAGGAGTACAAAACCATACTTTTTT [XGTACX_site6076] | 7.87 ± 0.33 |
| AAAGGAAAATTAAAAAGTACACATTTGAAAAAAAAA [XGTACX_site2724] | 8.01 ± 0.41 |
| ATGTATTTAATAAGAACACACATATATTTAATTTAA [CACACA_site5606] | 7.54 ± 0.63 |
| TCTTTTTTTAATAAAACATGCAATATTATATATGTA [TGCATGCA_site236] | 7.79 ± 0.65 |
| GTAATTATTAATAAAACATGCGTATAAAATTTTCTC [TGCATGCA_site50] | 7.73 ± 0.51 |
| TAAATTCTTTAAAACTTTAAAACAAAAAAAAAAAAA [CACACA_negctrl_site1078] | 7.92 ± 0.93 |
| AAAAAAATATATATATATATATATATATATTTATAT [XGTACX_negctrl_site86] | 8.25 ± 0.48 |
| AAACAAAAAATATATACACACTAAACATAAAAAAAA [CACACA_site4185] | 7.81 ± 0.65 |
| AGTGACACCAAAGGGGTGCAATGAAATTAAAAATAT | 10.7 ± 0.24 |
| TTTATTCATTTCTAAAAATATTAAAATAGAATGAAT [CACACA_negctrl_site325] | 7.42 ± 0.45 |
| TAAAAAAAAATAAATGGTACACAATTAAATGTTTAT [XGTACX_site5255] | 7.7 ± 0.57 |
| ATAAGAAAATCAAAAAGTACTTTTTACAAAGATAAA [XGTACX_site824] | 7.79 ± 0.19 |
| ATATACTATATATAATGTACATATATATTATTATGC [XGTACX_site2957] | 7.72 ± 0.47 |
| ATTTTATGATATATTTGTACTTAACATTTGGATATA [XGTACX_site5888] | 7.8 ± 0.49 |
| TAGTTTTTTATATATTGTACAAATAATATATTATAT [XGTACX_site2564] | 7.91 ± 0.34 |
| AAAAAAAAAAAAAGAACATGCGACTTTAAGAACTGG [TGCATGCA_site792] | 7.82 ± 0.56 |

| Sequence | gcPBM binding intensity (ln) |
| --- | --- |
| TATGAAAATAAAATATGTACATATTTTAAATGTTAT [XGTACX_site7352] | 8.04 ± 0.37 |
| CAAATGTGTTCTTCAGGTACAGATACACATTTATGA [XGTACX_site2664] | 7.5 ± 0.57 |
| TAAAAAATTATATATTGTACGAATGCATAAAAAAAA [XGTACX_site4606] | 8.45 ± 0.59 |
| CACCATGTTAACAAAGCATGCATCTCTATAGTTTTA [TGCATGCA_site97] | 7.83 ± 0.71 |
| CCCAAAAAAAATTTATGTACTTATTAAATATATATA [XGTACX_site6455] | 8.1 ± 0.55 |
| TTTATATAAATTTAAGTGCAAAATGAACAAGTGAAA | 10.1 ± 0.15 |
| AAAATATATATTTGTTGTACAATATTAATTATTAAA [XGTACX_site1612] | 7.83 ± 0.31 |
| TTCAATGCTAATTTATGTACATATGTATATAAAATA [XGTACX_site8335] | 7.59 ± 0.36 |
| TGCAAAGGTGAAAGAACACACAAAAAAAAAAAAAAA [CACACA_site4024] | 8.14 ± 0.64 |
| TTCAAAGGGAAATTAACACACACATATATATATATA [CACACA_site8777] | 9.44 ± 0.52 |
| TTTTTAATCTCATATGTATAATATATTTTTATTAAA [XGTACX_negctrl_site236] | 7.59 ± 0.48 |
| AATTTTAGATTTAGCACACATTTTTTTTTTTTTTTT [CACACA_site6105] | 8.69 ± 0.57 |
| TATGAAATTAGAATTACACACAGGAAAATAAAATGC [CACACA_site6822] | 8.12 ± 0.63 |
| TATATATATACCAACACACATACATATATATATATA [CACACA_site1795] | 9.24 ± 0.34 |
| TGAATAAATATATATACACACATATCTGTATTTATT [CACACA_site4991] | 7.52 ± 0.59 |
| AAATTTGGCAGACACACACACACACGCACACGCACA [CACACA_site6423] | 8.41 ± 0.51 |
| TATATATATTTAAAGGTGCAGATGCCAGTGTATATT | 9.63 ± 0.042 |
| AATGAACTCACGAGCACACACACACCGATATATATA [CACACA_site4710] | 8.29 ± 0.79 |
| ATAAATATATTTAAATGTACATAATATATATATATA [XGTACX_site5137] | 9.15 ± 0.48 |
